From patent US20200231665A1 (published 2020)

How the values were obtained:
huTGF-β1 = huTGF-β1 (human, UniProt P01137 part only); assay: ELISA; bridging ELISA: coated huTGF-β1, detected with biotinylated hu PD-L1
His tagged TGF-β1 = His tagged TGF-β1 (UniProt P01137 part only); assay: BLI
His-tagged huPD-L1 = His-tagged huPD-L1 (human, UniProt Q9NZQ7 part only); assay: BLI
[1] = molecular target: FITC labeled human PD-L1-Fc protein (human, UniProt Q9NZQ7 part only, FITC labeled); assay: blocking of PD-L1 binding to PD-1 (flow cytometry, MFI)
[2] = molecular target: human PD-L1 on CHO-K1 cells (human, UniProt Q9NZQ7); assay: flow cytometry cell binding

Chain of His tagged TGF-β1 (P01137 279-390): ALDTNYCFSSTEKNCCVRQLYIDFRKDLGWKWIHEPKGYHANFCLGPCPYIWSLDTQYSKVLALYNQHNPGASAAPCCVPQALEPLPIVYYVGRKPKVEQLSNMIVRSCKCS
Chain of huTGF-β1 (P01137 279-390): as above
Chain of His-tagged huPD-L1 (Q9NZQ7 19-238): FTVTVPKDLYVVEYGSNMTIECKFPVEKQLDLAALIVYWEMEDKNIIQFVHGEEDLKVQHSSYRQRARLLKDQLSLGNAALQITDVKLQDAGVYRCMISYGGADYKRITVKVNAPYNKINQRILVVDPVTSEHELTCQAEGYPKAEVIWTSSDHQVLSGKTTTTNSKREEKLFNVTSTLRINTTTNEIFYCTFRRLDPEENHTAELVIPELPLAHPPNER

EC50 (huTGF-β1): 10.3 nM
Kd (His tagged TGF-β1): 0.28 nM
Kd (His-tagged huPD-L1): 0.83 nM
IC50 [1]: 1.23 nM
EC50 [2]: 1.6 nM
B1: Bi-PLB-1.2 (bispecific antibody)
heavy: QVQLVQSGAEVKKPGASVKVSCKASGYTFTSYWMHWVRQAPGQGLEWMGMIHPNSGGNNYNEKFKSRVTMTRDTSISTAYMELSRLRSDDTAVYYCARSWYGSSPYYFDYWGQGTLVTVSSASTKGPSVFPLAPSSKSTSGGTAALGCLVKDYFPEPVTVSWNSGALTSGVHTFPAVLQSSGLYSLSSVVTVPSSSLGTQTYICNVNHKPSNTKVDKRV[sequence of human IgG1 Fc omitted]GGGGSGGGGSGGGGSGGGGSGIPPHVQKSVNNDMIVTDNNGAVKFPQLCKFCDVRFSTCDNQKSCMSNCSITSICEKPQEVCVAVWRKNDENITLETVCHDPKLPYHDFILEDAASPKCIMKEKKKPGETFFMCSCSSDECNDNIIFSEEYNTSNPD
light: DIQMTQSPSSLSASVGDRVTISCRASQDIDNYLNWYQQKPGKAPKLLIKYTSRLHSGVPSRFSGSGSGTDFTLTISSLQPEDFATYFCQQGYTLPWTFGGGTKVEIKRTVAAPSVFIFPPSDEQLKSGTASVVCLLNNFYPREAKVQWKVDNALQSGNSQESVTEQDSKDSTYSLSSTLTLSKADYEKHKVYACEVTHQGLSSPVTKSFNRGEC
